Data: PMC2927779
Changes are numbered by the printed parent chain. Results are given in words; binding and its absence hold for the method and conditions named. For some assays here: Binding seen in cells or lysates may run through a third protein. Some entries that bind do so weakly or less than the wild type. For some assays here: Where a sequence is shown, tags or fusion partners need not be part of it.

Chains of the proteins cited; added tags and fusions are not shown. Lines headed by an entry give the natural chain unless they say otherwise; changes in a name come on top.
UniProt Q24117: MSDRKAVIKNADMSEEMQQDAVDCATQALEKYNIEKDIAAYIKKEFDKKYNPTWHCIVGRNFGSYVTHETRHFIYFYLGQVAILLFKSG
UniProt Q9NFU0: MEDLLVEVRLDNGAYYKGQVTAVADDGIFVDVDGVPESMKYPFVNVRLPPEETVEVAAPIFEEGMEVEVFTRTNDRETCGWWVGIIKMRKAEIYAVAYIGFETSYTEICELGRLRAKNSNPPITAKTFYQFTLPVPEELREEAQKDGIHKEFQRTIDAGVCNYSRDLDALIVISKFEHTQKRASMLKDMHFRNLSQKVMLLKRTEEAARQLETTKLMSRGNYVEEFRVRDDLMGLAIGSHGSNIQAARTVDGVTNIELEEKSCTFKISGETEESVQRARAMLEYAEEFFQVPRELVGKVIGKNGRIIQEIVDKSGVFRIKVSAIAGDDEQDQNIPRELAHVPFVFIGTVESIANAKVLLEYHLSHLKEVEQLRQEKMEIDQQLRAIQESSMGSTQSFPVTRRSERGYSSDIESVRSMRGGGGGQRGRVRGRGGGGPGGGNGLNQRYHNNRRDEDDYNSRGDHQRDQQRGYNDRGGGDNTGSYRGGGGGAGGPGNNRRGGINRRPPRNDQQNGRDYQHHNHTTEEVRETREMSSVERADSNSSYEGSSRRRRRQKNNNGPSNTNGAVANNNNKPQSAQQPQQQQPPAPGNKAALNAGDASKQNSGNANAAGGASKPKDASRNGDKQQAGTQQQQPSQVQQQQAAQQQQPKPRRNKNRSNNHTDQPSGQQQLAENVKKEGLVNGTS

Legend:
[1] = molecular target: T1, GFP-tagged Egl protein (Egl::GFP) (Drosophila) (UniProt Q9W1K4); assay: co-IP; immunoprecipitation of Egl::GFP, immunoblotting; with and without RNase
T1 sequence: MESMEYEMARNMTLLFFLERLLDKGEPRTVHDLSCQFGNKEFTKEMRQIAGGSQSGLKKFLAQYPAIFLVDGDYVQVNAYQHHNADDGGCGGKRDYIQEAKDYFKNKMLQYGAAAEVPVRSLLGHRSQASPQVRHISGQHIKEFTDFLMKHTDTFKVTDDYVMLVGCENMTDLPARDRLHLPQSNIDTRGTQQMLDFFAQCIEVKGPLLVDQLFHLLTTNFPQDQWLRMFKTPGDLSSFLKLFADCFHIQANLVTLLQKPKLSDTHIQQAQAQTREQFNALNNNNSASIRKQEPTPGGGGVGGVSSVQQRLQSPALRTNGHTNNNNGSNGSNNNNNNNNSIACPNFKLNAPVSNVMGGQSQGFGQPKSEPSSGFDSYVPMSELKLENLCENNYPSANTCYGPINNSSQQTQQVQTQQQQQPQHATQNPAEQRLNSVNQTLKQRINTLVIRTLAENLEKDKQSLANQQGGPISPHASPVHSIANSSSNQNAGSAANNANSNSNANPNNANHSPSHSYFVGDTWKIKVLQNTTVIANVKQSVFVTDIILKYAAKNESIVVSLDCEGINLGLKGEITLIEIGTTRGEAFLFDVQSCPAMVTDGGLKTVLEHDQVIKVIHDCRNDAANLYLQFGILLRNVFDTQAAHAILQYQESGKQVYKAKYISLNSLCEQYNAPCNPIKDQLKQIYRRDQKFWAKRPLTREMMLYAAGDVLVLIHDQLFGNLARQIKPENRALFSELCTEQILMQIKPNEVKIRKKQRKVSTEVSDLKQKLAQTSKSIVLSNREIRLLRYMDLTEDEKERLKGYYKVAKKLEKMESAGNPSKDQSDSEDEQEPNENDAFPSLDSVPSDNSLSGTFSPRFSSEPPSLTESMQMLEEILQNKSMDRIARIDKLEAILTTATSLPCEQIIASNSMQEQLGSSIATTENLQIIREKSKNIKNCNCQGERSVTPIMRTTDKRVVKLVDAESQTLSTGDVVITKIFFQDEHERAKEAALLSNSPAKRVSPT

[2] = molecular target: T2, Drosophila BicD CTD (amino acids 536–782) fused to GST (Drosophila) (UniProt P16568); assay: pull-down; GST-BicD CTD as bait, from extracts treated with RNase; western blotting; only the target purified
T2 sequence: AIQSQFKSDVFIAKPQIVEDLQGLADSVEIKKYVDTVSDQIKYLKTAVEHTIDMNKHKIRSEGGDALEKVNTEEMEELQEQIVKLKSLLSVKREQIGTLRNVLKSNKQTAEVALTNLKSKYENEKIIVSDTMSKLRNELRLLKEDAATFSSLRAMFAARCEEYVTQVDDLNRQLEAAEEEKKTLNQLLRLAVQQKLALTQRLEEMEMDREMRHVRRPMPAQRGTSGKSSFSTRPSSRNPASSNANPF

[3] = molecular target: T3, Bicaudal-D (BicD), endogenous, Drosophila (Drosophila (endogenous in embryo extracts)) (UniProt P16568); assay: co-IP; immunoprecipitation of endogenous BicD from Drosophila embryonic extracts, immunoblotting; without RNase
T3 sequence: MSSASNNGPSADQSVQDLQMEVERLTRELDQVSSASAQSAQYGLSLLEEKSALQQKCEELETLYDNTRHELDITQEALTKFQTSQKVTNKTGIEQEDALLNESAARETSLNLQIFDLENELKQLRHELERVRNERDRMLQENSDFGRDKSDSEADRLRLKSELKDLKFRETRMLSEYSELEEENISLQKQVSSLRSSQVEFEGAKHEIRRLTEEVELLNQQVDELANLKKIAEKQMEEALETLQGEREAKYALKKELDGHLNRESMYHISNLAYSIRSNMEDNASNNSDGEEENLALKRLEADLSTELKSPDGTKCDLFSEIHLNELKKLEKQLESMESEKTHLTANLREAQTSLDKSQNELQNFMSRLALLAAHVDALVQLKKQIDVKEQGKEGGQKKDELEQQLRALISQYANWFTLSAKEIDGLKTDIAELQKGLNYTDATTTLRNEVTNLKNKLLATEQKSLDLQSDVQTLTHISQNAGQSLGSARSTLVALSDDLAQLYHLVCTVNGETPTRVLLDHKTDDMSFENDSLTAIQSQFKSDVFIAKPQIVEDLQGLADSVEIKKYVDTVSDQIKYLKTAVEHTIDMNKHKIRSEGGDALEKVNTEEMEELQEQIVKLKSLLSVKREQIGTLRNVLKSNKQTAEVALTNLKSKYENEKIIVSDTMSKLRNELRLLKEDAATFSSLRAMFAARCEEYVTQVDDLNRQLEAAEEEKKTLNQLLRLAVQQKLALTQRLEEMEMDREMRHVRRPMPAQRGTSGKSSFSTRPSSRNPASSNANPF

[4] = molecular target: T3, Bicaudal-D (BicD), endogenous, Drosophila (Drosophila (endogenous in embryo extracts)); assay: co-IP; immunoprecipitation of endogenous BicD from Drosophila embryonic extracts treated with RNase, immunoblotting
[5] = molecular target: T2, Drosophila BicD CTD (amino acids 536–782) fused to GST (Drosophila); assay: pull-down; GST-BicD CTD (wild-type or K730M) as bait, from fly embryonic extracts; Coomassie stain, mass spectrometry of the band and western blotting; only the target purified
[6] = molecular target: T4, BicD CTD K730M, yeast two-hybrid fusion (Drosophila) (UniProt P16568); assay: two-hybrid; yeast two-hybrid assays
T4 sequence: T2 sequence with K195M

[7] = molecular target: T5, BicD CTD, yeast two-hybrid fusion (Drosophila) (UniProt P16568); assay: two-hybrid; yeast two-hybrid assays
T5 sequence: T2 sequence

Row | binding [1] | binding [3] | binding [5] | binding [6] | binding [7] | Substance | binding [2] | binding [4]
1 | binds |  |  |  |  | Dynein light chain (Dlc) (from UniProt Q24117 1-89) |  | 
2 | no binding | binds | binds |  |  | Fragile X mental retardation protein (FMRP), endogenous, Drosophila (from UniProt Q9NFU0 1-684) | no binding (condition: with RNase treatment) | no binding (condition: with RNase treatment)
3 |  |  |  | no binding | binds weakly | subfragment of FMRP (aa 220–618), yeast two-hybrid fusion (from UniProt Q9NFU0 220-618) (domain or fragment) |  | 
